Results on three compounds are retold here after patent US20220304309A1, “IRON COMPLEXES AND USES THEREFOR” (priority 2019, published 2022).

The subject of one assay is X. campestris. As to conditions: preincubation 24 hours with 5 mM ascorbate + 5 μM Cu(II); for CFU: 36 hour treatment; for A600: further 36 hours.
The subject of another assay is Fusarium oxysporum. Briefly: Growth inhibition of F. oxysporum on agar plates (paper discs). The note with it: paper discs with various concentrations, in the presence and absence of H2O2. The procedure: The ability of ferrous complexes to inhibit growth of F. oxysporum is tested by culturing the fungus on agar plates and placing small paper discs saturated with various concentrations of ferrous complex on the plate, in the presence and absence of H2O2.

In a further assay the test system is chlorotic orange tree. The experiment in a line: Reversal of chlorosis in an orange tree after foliar application. The note with it: single foliar application of approximately 1 liter of 50 μM solution; after three months. The procedure: FIG. 4 is a photograph of a chlorotic orange tree approximately three months after application of one liter of a 50 μM solution of ferrous di-pyruvate. Dried, stunted chlorotic leaves are visible at the left of the photograph; while new growth; characterized by shiny, bright-colored leaves; is visible at the bottom and at the right of the photograph.
Chlorosis was induced in an orange tree by long-term neglect over a period of five years. The chlorotic tree was treated with a single foliar application of approximately 1 liter of a 50 μM solution of ferrous di-pyruvate, sprayed onto the undersides of the leaves.

[1] abbreviates: addition 5 mM ascorbate + 0.25 mM FDP.

Where two headings read alike, the source gives them in different places.

`O=C1O[C@H]([C@@H](O)CO)C([O-])=C1O.[Na+]` [ascorbate, sodium ascorbate, reference compound]: in the assay with X. campestris (addition 5 mM ascorbate), the CFU is listed as 5.6 × 10^11 and the A600 was 0.519.

Consider `O=C([O-])CC(O)(CC(=O)[O-])C(=O)[O-].O=C([O-])CC(O)(CC(=O)[O-])C(=O)[O-].[Fe+2].[Fe+2].[Fe+2]` [tri-ferrous di-citrate], for which, in the assay with Fusarium oxysporum, the “Growth of F. oxysporum” value is “inhibited”.

For the compound ferrous di-pyruvate, the A600 with X. campestris (addition 0.25 mM FDP) was found to be 0.320. For the same compound, in the assay with X. campestris (setting [1]), the CFU was 1.05 × 10^7 CFU per ml and the A600 came to 0.218. In addition, the “Reversal of chlorosis (new growth)” value with chlorotic orange tree was “new growth of large, shiny, brightly-colored leaves”. Further, the “Growth of F. oxysporum” value in the assay with Fusarium oxysporum is given as “inhibited”.
